# This is one part of the list. Most values come without repeats; read them as rough.
# What was measured:
# Assay in all cases: cell count relative to DMSO control; melanoma cells; higher = more viable cells
# Details in all cases: library dose: low library concentration; 72 h
# WM115 = system: WM115
# WM1716 = system: WM1716
# WM1745 = system: WM1745
# WM3526 = system: WM3526
# WM3619 = system: WM3619
# WM451Lu = system: WM451Lu
# 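Further: cell number obtained by counting DAPI-stained nuclei in high-throughput microscope images with image analysis software, screen run in 1,536-well plates.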
Compound,cell count (WM115),cell count (WM1716),cell count (WM1745),cell count (WM3526),cell count (WM3619),cell count (WM451Lu)
"C[C@]1(c2nc3c(C(N)=O)cccc3[nH]2)CCCN1 [Veliparib] + COc1ccc(-c2ccc3c(N4CCOCC4)nc(N4C[C@@H](C)O[C@@H](C)C4)nc3n2)cc1CO [KU0063794] (first compound 1.4 µM, partner dose 0.02 µM)",80.6%,89.5%,95.2%,89%,86%,107%
"CO[C@@H]1[C@H](N(C)C(=O)c2ccccc2)C[C@H]2O[C@]1(C)n1c3ccccc3c3c4c(c5c6ccccc6n2c5c31)C(=O)NC4 [Midostaurin] + NCC(=O)Nc1ccc(-n2nc(C(F)(F)F)cc2-c2ccc3c(ccc4ccccc43)c2)cc1 [OSU03012] (first compound 0.08 µM, partner dose 1 µM)",59%,62.2%,82.8%,44%,87.4%,64.4%
"OCCn1cc(-c2cnc3nnn(Cc4ccc5ncccc5c4)c3n2)cn1 + Cn1cncc1[C@@](N)(c1ccc(Cl)cc1)c1ccc2c(c1)c(-c1cccc(Cl)c1)cc(=O)n2C [tipifarnib] (first compound 1 µM, partner dose 0.01 µM)",82.6%,74.4%,88.7%,92.6%,80.9%,99%
"CO[C@@H]1[C@H](N(C)C(=O)c2ccccc2)C[C@H]2O[C@]1(C)n1c3ccccc3c3c4c(c5c6ccccc6n2c5c31)C(=O)NC4 [Midostaurin] + COc1cc2c(Oc3ccc4[nH]c(C)cc4c3F)ncnc2cc1OCCCN1CCCC1 [cediranib] (first compound 0.08 µM, partner dose 0.4 µM)",88.3%,90.4%,84.3%,103%,107%,102%
"CO[C@@H]1[C@H](N(C)C(=O)c2ccccc2)C[C@H]2O[C@]1(C)n1c3ccccc3c3c4c(c5c6ccccc6n2c5c31)C(=O)NC4 [Midostaurin] + Cn1cc(/C=C2\C(=O)Nc3cccnc32)c2ccccc21 [GW441756] (first compound 0.08 µM, partner dose 0.4 µM)",71.3%,67.3%,76.7%,112%,96.2%,104%
"C[C@]1(c2nc3c(C(N)=O)cccc3[nH]2)CCCN1 [Veliparib] + COc1cc2c(Oc3ccc4[nH]c(C)cc4c3F)ncnc2cc1OCCCN1CCCC1 [cediranib] (first compound 1.4 µM, partner dose 0.4 µM)",88.6%,86.4%,91%,97.6%,107%,104%
"NCC(=O)Nc1ccc(-n2nc(C(F)(F)F)cc2-c2ccc3c(ccc4ccccc43)c2)cc1 + CC(C)CCN1c2nc(Nc3cc(F)c(O)c(F)c3)ncc2N(C)C(=O)C1C [BID1870] (first compound 1 µM, partner dose 0.2 µM)",102%,87.3%,92.3%,70.4%,91.6%,87%
"Cc1nc(Nc2ncc(C(=O)Nc3c(C)cccc3Cl)s2)cc(N2CCN(CCO)CC2)n1 [dasatanib] + COc1ccc2c(c1)CCC1C2CCC2(C)C(NCCCCCCN3C(=O)C=CC3=O)CCC12 [U73122] (first compound 0.004 µM, partner dose 0.4 µM)",72.3%,62.5%,61.6%,91.7%,84%,83.6%
"CN(C)S(=O)(=O)c1ccc2c(c1)/C(=C/c1cc3c([nH]1)CCCC3)C(=O)N2 + COC(=O)c1sccc1S(=O)(=O)Nc1ccc(Nc2ccccc2)cc1OC [GSK0660] (first compound 0.4 µM, partner dose 1 µM)",87.1%,116%,84.6%,98.3%,120%,99.8%
"Cc1nc(Nc2ncc(C(=O)Nc3c(C)cccc3Cl)s2)cc(N2CCN(CCO)CC2)n1 [dasatanib] + CC(C)(C)c1cnc(CSc2cnc(NC(=O)C3CCNCC3)s2)o1 [SNS-032] (first compound 0.004 µM, partner dose 0.01 µM)",77.3%,60.7%,73.8%,110%,103%,64.6%
"OCCn1cc(-c2cnc3nnn(Cc4ccc5ncccc5c4)c3n2)cn1 + O=C(O)c1ccc(-c2c[nH]c3ncc(-c4ccccc4)cc23)cc1C1CCCC1 [GSK650394] (first compound 1 µM, partner dose 0.16 µM)",103%,97.2%,97.9%,105%,121%,89.5%
"CN(C)S(=O)(=O)c1ccc2c(c1)/C(=C/c1cc3c([nH]1)CCCC3)C(=O)N2 + COc1ccc(-c2ccc3c(N4CCOCC4)nc(N4C[C@@H](C)O[C@@H](C)C4)nc3n2)cc1CO [KU0063794] (first compound 0.4 µM, partner dose 0.02 µM)",68.3%,103%,87.6%,92.9%,86.8%,112%
"CN(C)S(=O)(=O)c1ccc2c(c1)/C(=C/c1cc3c([nH]1)CCCC3)C(=O)N2 + COc1cc2ncnc(Nc3ccc(Oc4ccccc4)cc3)c2cc1OC [SrcI1] (first compound 0.4 µM, partner dose 2 µM)",78.5%,113%,89.4%,84.8%,94.2%,103%
"Cc1nc(Nc2ncc(C(=O)Nc3c(C)cccc3Cl)s2)cc(N2CCN(CCO)CC2)n1 [dasatanib] + COc1cc2c(Oc3ccc4[nH]c(C)cc4c3F)ncnc2cc1OCCCN1CCCC1 [cediranib] (first compound 0.004 µM, partner dose 0.4 µM)",66.7%,57.2%,70.6%,79.4%,93.6%,61.3%
"NCC(=O)Nc1ccc(-n2nc(C(F)(F)F)cc2-c2ccc3c(ccc4ccccc43)c2)cc1 + Oc1cc(-c2nc(-c3ccccc3)[nH]c2-c2ccncc2)ccc1Cl [L779450] (first compound 1 µM, partner dose 0.2 µM)",78.6%,108%,92.9%,66.4%,114%,62.4%
"C[C@]1(c2nc3c(C(N)=O)cccc3[nH]2)CCCN1 [Veliparib] + O=C1NC(=O)/C(=C/c2ccc(-c3ccc(F)cc3O)o2)S1 [AS252424] (first compound 1.4 µM, partner dose 1 µM)",84.2%,87%,90.6%,93%,93.3%,93.6%
"C[C@]1(c2nc3c(C(N)=O)cccc3[nH]2)CCCN1 [Veliparib] + COc1cc2ncnc(Nc3ccc(Oc4ccccc4)cc3)c2cc1OC [SrcI1] (first compound 1.4 µM, partner dose 2 µM)",86.1%,101%,70.9%,76.5%,117%,117%
"NC(=O)Nc1cc(-c2cccc(F)c2)sc1C(=O)N[C@H]1CCCNC1 + Oc1nc(-c2ccc(C(F)(F)F)cc2)nc2c1CSCC2 [XAV939] (first compound 0.02 µM, partner dose 2 µM)",90.1%,65.1%,51.3%,73.7%,46.9%,94.5%
"OCCn1cc(-c2cnc3nnn(Cc4ccc5ncccc5c4)c3n2)cn1 + Cn1cc(/C=C2\C(=O)Nc3cccnc32)c2ccccc21 [GW441756] (first compound 1 µM, partner dose 0.4 µM)",101%,80.7%,113%,112%,114%,104%
"C=CCn1c(=O)c2cnc(Nc3ccc(N4CCN(C)CC4)cc3)nc2n1-c1cccc(C(C)(C)O)n1 + COc1cc(N2CCC(N3CCN(C)CC3)CC2)ccc1Nc1ncc(Cl)c(Nc2ccccc2S(=O)(=O)C(C)C)n1 [NVP-TAE684] (first compound 0.02 µM, partner dose 0.08 µM)",78.1%,89.4%,81.3%,100%,67.7%,110%
"NCC(=O)Nc1ccc(-n2nc(C(F)(F)F)cc2-c2ccc3c(ccc4ccccc43)c2)cc1 + COC(=O)c1sccc1S(=O)(=O)Nc1ccc(Nc2ccccc2)cc1OC [GSK0660] (first compound 1 µM, partner dose 1 µM)",108%,99.7%,97.5%,42.9%,104%,63.1%
"CO[C@@H]1[C@H](N(C)C(=O)c2ccccc2)C[C@H]2O[C@]1(C)n1c3ccccc3c3c4c(c5c6ccccc6n2c5c31)C(=O)NC4 [Midostaurin] + c1cc(-c2cnn3cc(-c4ccc(OCCN5CCCCC5)cc4)cnc23)ccn1 [Dorsomorphin] (first compound 0.08 µM, partner dose 0.4 µM)",105%,97.2%,83.2%,112%,105%,137%
"CO[C@@H]1[C@H](N(C)C(=O)c2ccccc2)C[C@H]2O[C@]1(C)n1c3ccccc3c3c4c(c5c6ccccc6n2c5c31)C(=O)NC4 [Midostaurin] + CCCCCCCCCCCC1=C(O)C(=O)C=C(O)C1=O [Embelin] (first compound 0.08 µM, partner dose 1.2 µM)",101%,96.8%,77%,109%,125%,99.4%
"CO[C@@H]1[C@H](N(C)C(=O)c2ccccc2)C[C@H]2O[C@]1(C)n1c3ccccc3c3c4c(c5c6ccccc6n2c5c31)C(=O)NC4 [Midostaurin] + OCCn1cc(-c2cnc3nnn(Cc4ccc5ncccc5c4)c3n2)cn1 [PF04217903] (first compound 0.08 µM, partner dose 1 µM)",115%,119%,98.3%,114%,109%,106%
"CN(C)S(=O)(=O)c1ccc2c(c1)/C(=C/c1cc3c([nH]1)CCCC3)C(=O)N2 + CC(C)CCN1c2nc(Nc3cc(F)c(O)c(F)c3)ncc2N(C)C(=O)C1C [BID1870] (first compound 0.4 µM, partner dose 0.2 µM)",70.4%,114%,93.7%,101%,119%,101%
"C[C@]1(c2nc3c(C(N)=O)cccc3[nH]2)CCCN1 [Veliparib] + O=c1cc(-c2cccc3c2Sc2ccccc2S3)oc(N2CCOCC2)c1 [KU55933] (first compound 1.4 µM, partner dose 1 µM)",109%,109%,95.3%,78.8%,105%,102%
